# The other results are listed elsewhere or left out. Values were computed here from the reads of four pooled replicates and scatter widely.
# Target: T1, Pho4 (S. cerevisiae) (UniProt P07270)
# T1 sequence: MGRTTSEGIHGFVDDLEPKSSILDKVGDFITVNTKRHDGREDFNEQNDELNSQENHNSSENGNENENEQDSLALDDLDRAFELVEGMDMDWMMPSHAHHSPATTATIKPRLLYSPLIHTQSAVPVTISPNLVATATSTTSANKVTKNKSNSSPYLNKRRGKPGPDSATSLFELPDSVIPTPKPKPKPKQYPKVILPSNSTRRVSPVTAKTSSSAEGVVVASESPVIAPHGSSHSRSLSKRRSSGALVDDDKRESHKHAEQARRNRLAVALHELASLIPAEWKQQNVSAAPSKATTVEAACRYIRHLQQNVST
# Assay: relative binding free energy (BET-seq); higher = weaker binding
# Details: reference: library average
row,Sequence,relative binding free energy [kcal/mol]
1,CATGTCACGTGGTTTT,0.13
2,TTCTTCACGTGGTAGC,0.2
3,AGGCTCACGTGTGGTG,0.32
4,TGGGCCACGTGATCGG,-0.05
5,ACTGGCACGTGGGAGG,-0.16
6,TAGTGCACGTGCAGGG,0
7,GGAGGCACGTGTCTGT,0.06
8,ATGTGCACGTGACGGA,0.13
9,TTAATCACGTGGGTTT,0.04
10,TATTGCACGTGAGTTA,0.05
11,ATTTACACGTGAGGTG,0.24
12,TTGTACACGTGTGGCT,0.12
13,GTGCGCACGTGGAGGG,-0.1
14,TTTTCCACGTGAATTT,0.35
15,TAGTGCACGTGGGTCG,-0.27
16,GCAAGCACGTGTGTAG,-0.08
17,TGTACCACGTGTGAGG,-0.13
18,TTATTCACGTGGCGAT,0.24
19,GGTAGCACGTGGATAT,-0.09
20,AGTATCACGTGTAAGG,0.12
21,TTCGCCACGTGGGGTG,-0.29
22,TTTGGCACGTGTAATG,-0.03
23,GTCTGCACGTGCGTGT,0.02
24,AGGTCCACGTGCAGGG,-0.08
25,TGAGGCACGTGAAATG,0.07
26,TAGATCACGTGGTGAG,0.07

row,Sequence,relative binding free energy [kcal/mol]
1,GAAGGCACGTGTGAGA,0.02
2,TAGGGCACGTGGTTGC,-0.12
3,CAATGCACGTGGTGGG,0.04
4,CGGGGCACGTGATTTT,0.07
5,ACTGACACGTGAGTTG,0.32
6,AGTCTCACGTGGCGTT,0.18
7,TAACTCACGTGGTAGT,0.08
8,AGTACCACGTGGGTAG,-0.27
9,TTTGTCACGTGCTAGA,-0.04
10,TGGCTCACGTGTCGCG,0.26
11,TGAGGCACGTGGGAAC,-0.15
12,GTTAACACGTGAGTGG,0.22
13,GAATACACGTGGGTTG,0.05
14,GAGGGCACGTGACGTT,0.07
15,TGCGGCACGTGAGGTT,0.13
16,GTTCTCACGTGTGGAT,0.3
17,TCATGCACGTGTTGAT,0.11
18,GTCTTCACGTGTGGCT,0.29
19,GGAGGCACGTGGGAAT,-0.05
20,GTTTTCACGTGATAGG,0.31
21,GAGCTCACGTGTGTGG,0.29
22,CATAGCACGTGTTTTT,-0.11
23,GGGGTCACGTGCCGAG,0.12
24,TTGAACACGTGACGTG,0.21
25,AGTTTCACGTGGGAGC,0.21
26,ATATGCACGTGGTTGA,-0.19

row,Sequence,relative binding free energy [kcal/mol]
1,CCTAGCACGTGGGGGG,-0.17
2,GTATACACGTGATAAG,0.27
3,TTTTTCACGTGTGTGG,0.33
4,TGCTACACGTGGAAGG,0.2
5,GAGGGCACGTGTAGAA,0.12
6,GATTGCACGTGTTGCA,0.14
7,TAGATCACGTGGGAGT,-0.01
8,AGGGTCACGTGAACTT,0.29
9,AGTGGCACGTGTATCG,0
10,TGCGGCACGTGTATGC,-0.04
11,TTTCGCACGTGAAGGG,0.31
12,AAGGTCACGTGTGCAG,0.12
13,ACTAACACGTGGTGGT,-0.01
14,CTTTGCACGTGCGGTT,-0.1
15,CGGTACACGTGTTAAT,0.08
16,TTTAGCACGTGATTGA,0.14
17,TAGTACACGTGTGAGA,0.18
18,TTAGGCACGTGTGATT,-0.02
19,AATTTCACGTGGAATG,0.11
20,CGGGACACGTGCTGTG,0.09
21,AGAGGCACGTGGAGCT,-0.1
22,TGGGTCACGTGGCGGA,0.05
23,TTTACCACGTGGCGGT,-0.06
24,TGTTACACGTGAGCGC,0.27
25,GGAGACACGTGGTTTT,0.05
26,GTTCACACGTGATTGG,0.37

row,Sequence,relative binding free energy [kcal/mol]
1,GGGGGCACGTGACAGT,0.12
2,TTAGGCACGTGATGCT,-0.09
3,CTCGTCACGTGGGGTT,-0.07
4,AAGTTCACGTGCAGGT,0.33
5,AATAGCACGTGGTTCT,-0.2
6,GGGCTCACGTGGTATG,0.24
7,GTACACACGTGTTTGG,0.14
8,GGTGCCACGTGTGTGT,0.09
9,GGGTACACGTGTGTGG,0.13
10,GACTGCACGTGGTGTT,0.02
11,CAGTTCACGTGTTGGA,0.31
12,AAGGGCACGTGGGGAC,-0.2
13,CCTGGCACGTGGGTTT,-0.21
14,GAAATCACGTGCGTTG,0.23
15,CTCGGCACGTGGGTTG,-0.29
16,TTGACCACGTGCGTTG,-0.02
17,TTTTTCACGTGCTGAG,0.1
18,GTAATCACGTGCGTTA,0.22
19,TGAATCACGTGTCAGT,0.23
20,TTTTTCACGTGGAGTA,0.31
21,GACACCACGTGGGGGG,-0.06
22,CAGAGCACGTGGTAGG,-0.07
23,AATTACACGTGTGGTT,0.14
24,TTTATCACGTGTTATT,0.09
25,TTATACACGTGGACTG,0.01
26,CGTTACACGTGTAGTG,-0.05

row,Sequence,relative binding free energy [kcal/mol]
1,AGGGTCACGTGTTGTG,0.17
2,GGCGACACGTGAGGTG,0.25
3,GATAGCACGTGTTGTC,0.02
4,TATCGCACGTGTCAGT,0.02
5,TGAGGCACGTGCTTTG,-0.04
6,ATCGGCACGTGGTAGT,-0.26
7,TGAATCACGTGTTGGT,0.14
8,TGTTTCACGTGAGGCA,0.36
9,GGGCGCACGTGGGAAA,-0.06
10,TGCATCACGTGGTGTG,0.07
11,TTTCGCACGTGAGGTG,0.23
12,TGGGCCACGTGGGGGA,-0.15
13,GAATTCACGTGGCAGG,0.2
14,TTTTACACGTGGGCGG,0.1
15,TTCTTCACGTGGGGCT,0.2
16,TGGAGCACGTGGGCAA,-0.24
17,TGTGACACGTGTGGAT,0.04
18,AGCCTCACGTGGTGGG,0.06
19,ATGAACACGTGTAAGT,0.18
20,CGGATCACGTGGAGTT,0.07
21,GTGATCACGTGGTCGA,0.06
22,CTAAGCACGTGGGGCG,-0.14
23,TATATCACGTGTATGC,0.13
24,CATAACACGTGGTTGT,0.04
25,GTGTACACGTGAGAAG,0.26
26,CATGTCACGTGCGTTT,0.07

row,Sequence,relative binding free energy [kcal/mol]
1,ATAGACACGTGGGTTT,-0.16
2,CTGGGCACGTGTGCTG,-0.15
3,AGGGTCACGTGTGGAT,0.13
4,GCTGTCACGTGAATGT,0.3
5,AGGAGCACGTGATTAG,-0.03
6,AGATCCACGTGGTTGG,-0.05
7,ATGCTCACGTGAGTGT,0.26
8,GTAGGCACGTGGGGAC,-0.21
9,GGGTACACGTGGAGTG,0.18
10,TATGTCACGTGCTTGA,0.11
11,TGAGTCACGTGGTCAG,-0.05
12,ATGGACACGTGGGTAG,-0.01
13,GTTGGCACGTGGCAGT,-0.14
14,TATGTCACGTGTGTAC,-0.09
15,GATTTCACGTGTTGAA,0.34
16,GTGCACACGTGGATGT,0.09
17,TTGTACACGTGAATAA,0.21
18,GGTTGCACGTGTGTGC,0.07
19,GGTGTCACGTGGCAAT,0.14
20,GGATGCACGTGATGGT,0.14
21,TATATCACGTGGTGAA,0.11
22,AGCGGCACGTGATAGG,-0.01
23,CGTCTCACGTGTAGTG,0.25
24,TGAATCACGTGGGGGT,0.09
25,AGGTACACGTGTGGTG,0.1
26,TAGGGCACGTGGTTCA,-0.16

row,Sequence,relative binding free energy [kcal/mol]
1,AGTGACACGTGAGCGT,-0.03
2,TCGGTCACGTGGTAGC,0.05
3,TGTTTCACGTGCACGT,0.14
4,ATATTCACGTGATACG,0.35
5,CGTTTCACGTGTTATT,0.23
6,GTTAGCACGTGCAGTT,-0.11
7,GGGGACACGTGTGCTA,0.03
8,GAAGGCACGTGGGGGA,-0.16
9,TTAACCACGTGAGGTG,0.05
10,GTCTTCACGTGATGGA,0.39
11,GTGTTCACGTGATGGG,0.39
12,GGAGGCACGTGGTCAG,-0.11
13,TAAAACACGTGATTGG,0.15
14,TTTTACACGTGTTCGC,0.11
15,AACTTCACGTGGTGTA,0.36
16,TTTGTCACGTGACGTA,0.11
17,GGTTACACGTGGTAAA,0.04
18,TTTTACACGTGGTGGG,0.15
19,GTCTACACGTGGAGTG,0.05
20,GTAGGCACGTGGCTGG,-0.09
21,TCGAGCACGTGGTTGT,-0.07
22,TTCTTCACGTGCTTGG,0.16
23,AATGTCACGTGTTAGC,0.06
24,ACTTGCACGTGTGATA,0.22
25,TCTATCACGTGAGTTT,0.17
26,GTATACACGTGTAAGT,0.04

row,Sequence,relative binding free energy [kcal/mol]
1,CGTTTCACGTGTTTGC,0.35
2,AGTGTCACGTGTGAAG,0.12
3,TTGTCCACGTGGATGT,0.07
4,TGACGCACGTGGAATG,0.06
5,TGTGACACGTGGGACT,-0.07
6,TAATGCACGTGTTTCG,0.03
7,GTTTTCACGTGTGATT,0.43
8,TCAGACACGTGTGTTT,0.04
9,TTAGGCACGTGCTATA,-0.25
10,TATTTCACGTGTAATA,0.41
11,AGAAGCACGTGATGGT,0.07
12,AAATACACGTGTGGTT,0.13
13,GTTTTCACGTGTAAAG,0.29
14,TAATGCACGTGTAGTA,0.21
15,TTGATCACGTGGACTA,0.2
16,GTATGCACGTGGGAAA,0.05
17,GATGTCACGTGAGAGT,0.32
18,TCGATCACGTGTTGAT,0.12
19,TAGCTCACGTGATTTT,0.3
20,GGTTGCACGTGGCGAG,-0.11
21,GTTTCCACGTGATGGT,0.28
22,AGGCTCACGTGTTGGA,0.25
23,AATAGCACGTGAAAGG,0.24
24,TCGCGCACGTGTATGG,-0.05
25,TAGTTCACGTGCGGCA,0.36
26,AGTGACACGTGTAATG,0.05

row,Sequence,relative binding free energy [kcal/mol]
1,CGATGCACGTGTGAGT,-0.01
2,GATAGCACGTGGATGG,0.11
3,AATTTCACGTGTGCAG,0.17
4,GGCCACACGTGAGGGG,0.19
5,GTGCCCACGTGTGAGG,0.05
6,TTTGCCACGTGCGCGG,-0.19
7,TGTATCACGTGTGTTA,0.18
8,ATCGTCACGTGGGATA,0
9,GTAAGCACGTGTGTAT,-0.1
10,TCAGTCACGTGCAGGT,0.19
11,TGAGACACGTGATGAG,0.18
12,TTAAACACGTGGGGGT,-0.1
13,GTTGGCACGTGGTTCA,-0.23
14,CGGATCACGTGTGAAG,0.26
15,GCATTCACGTGCGTGG,0.35
16,CGGTCCACGTGTGCGG,-0.01
17,TACTACACGTGTTGGT,-0.01
18,CCGAGCACGTGGGGGG,-0.32
19,GTTAGCACGTGAGGCT,0.26
20,GTTGGCACGTGCGGTA,-0.12
21,TGGGGCACGTGACGTA,0.01
22,AGAAGCACGTGGGTGG,-0.17

# Reference: the BET-seq Pho4 binding data (Le et al. 2018)
